Laboratory results as given in the RNAGym collection of RNA variant scans (doi:10.7554/elife.90254).
Read counts are not given, so values of variants with three or more changes are uncertain.

B1: OR4K15 (parent)
chain: GUUAACGGUCAUAGGCCAUGGAAACUAGGAGCACCAUUUCGCUGCCAGUGAAGAAAUGAACAAAGAAAAUCUGGGCCAGGCAGGCAUCAAAAGAAAUAGUCUUGCGCUCAACCAGAAAGUCUGUAAUCAUUUUAAGGGUA

Variants of: B1
Test: self-cleavage, relative activity (ratio to wild type); higher = more cleavage; in vitro, sequencing; the parent is a self-cleaving ribozyme

For GUUAACGGUCAUAGGCCAUGGAAACUAGGAGCACCGUUUCGCUGCCAGUGAAGAAAUGGACAAAGAAAAUCUGGGCCAGGCAGGCAUCAAAAGAAAUAGUCUUGCGCCCAACCAGAAAGUCUGUAAUCAUUUUAAGGGUA [A36G A59G U108C], which self-cleavage is on record?
The self-cleavage was 0.02.

With GUUGACGGUCAUAGGCCAUGGGGACUAGGAGCACCACUUCGCUGCCAGUGAAGAAAUGGACAAAGAAAAUCUGGGCCAGGCAGGCAUCAAAGGAAAUAGUCUUGCGCUCAACCUGAAAGUCUGUAAUCAUUUUAAGGGUA [A4G A22G A23G U37C A59G A92G A114U] as the variant, how does the self-cleavage read?
The self-cleavage was 0.03.

For GUUAACGGUCAUAGGCCAUGGAAACUAGGAGCACCAUUUCGCUGCCAGUGAAGAAAUAAACAAAGAAAAUCUGGGCCAGGCAGGCACCAAAGGAAAUAGUCUUGCGCUCCACCAGAAAGUCUGUAAUCAUUUUAAGGGUA [G58A U87C A92G A110C], which self-cleavage is on record?
Its self-cleavage is 0.24.

Which self-cleavage does the source give for GUUAACGGUCAUAGGCCAUGGAAACUAGGAGCACCAUUUCGCUUCCAGUGAAGAAGUGAACAAAGAAAAUCUGGGCCAGGCAGGCAUCAAAAGAGAUAGCCUUGCGCUCAACCAGAAAGUCUGUAAUCAUUUUAAGUGUA [G44U A56G A95G U100C G137U] here?
The self-cleavage was 2.02.

Which self-cleavage does the source give for GUUAACGGCCAUAGGCCAUGGAAACUAGGAGCACCAUUUCGCUGCCAGUGAAGAAAUGAACAAAGAAAAUCUGGGCCAGGCAGGCAUCAAAAGAAAUAGUCUUGCGCUCAACCAGAAAGCCUGUAAACAUUUUAAGGGUA [U9C U120C U127A] here?
Its self-cleavage is 1.65.

Which self-cleavage does the source give for GUUAACGGUCUUAGGCCAUGGAAACUAGGAGCACCAUUUCGCUGCCAUUGGAGAAAUGAACAAAGAAAAUCUGGGCCAGGCAGGCAUCAAAAGAAAUAGUCUUGCGCUCAACCAGAAAGUCUGUAAUCAUUUUAAGGGUA [A11U G48U A51G] here?
The self-cleavage was 1.11.

Which self-cleavage does the source give for GUUAACGGUCAUGGGCCUUGGAAACUAGGAGCACCAUUUCGCUGCCAGUGAAGAAAUGAACAAAGAAAAUCUGGGCCAGGCAGGCAUCAAAAGAAAUAGUCUUGCGCUCAACCAGAAAGUCCGUAAUCAUUCUAAGGGUA [A13G A18U U122C U132C] here?
Its self-cleavage is 0.38.

For GAUAACGGUCAUAGGCCAUGGAAACUAGGAGCACCAUUUCGCUGCCAGUGAAGAAAUGAACAAAGAAAAUCUGGGCCAGGCAGGCAUCAAAAGAAAUAGUCUUUCGCUCAACCAGAGAGUCUGUAAUCAUUUUAAGGGUA [U2A G104U A117G], which self-cleavage is on record?
The self-cleavage was 0.01.

With GUUGACGGUCACAGGCCAUGGAAACUAGGAGCACCAUUUCGCUGCCAGUGAAGGAAUGAACAAAGAAAAUCUGGGCCAGGCAGGCAUCAAAAGAAAUAGUCUUGCGCUCAACCAGAAAGUCUGUGAUCAUUUUAAGGGUA [A4G U12C A54G A125G] as the variant, how does the self-cleavage read?
Its self-cleavage is 0.35.

Which self-cleavage does the source give for GUUAGCGGUCAUAGGCCAUGGAAACUAGGAGCACCAUUUCGCUGCCAGUGAAGAAAUGAACAAAGAAAAUCUGGGCCAGGCAGGCAUCAAAAGAAAUAGUCUUGCGCUCAACCAGAAAGUCUGUUAUCAUUUUAAGGAUA [A5G A125U G138A] here?
The self-cleavage was 1.47.

Which self-cleavage does the source give for GUUAACGGUCAUAGGCCAUGGAAUCCAGGAGCACCAUUUCGCUGCCAGUGAAGAGAUGAACAAAGAAAAUCUGGGCCAGGCAGGCAUCAAAAGAAAUAGUCUUGCGCUCAACCAGAAAGUCUGUAAUCAUUUUAAGGGUA [A24U U26C A55G] here?
Its self-cleavage is 1.58.

For GUUAACGGUCAUAGGCCAUGGAAACUAGGAGCACCAUUUCGCCGCCAGUGAGGAAAUGAACAGAGAAAAUCUGGGCCAGGCAGGCAUCAAAAGAAAUAGUCUUGCGCUCAACCAGAAAGUCUGUAAUCAUUUUAAGGGUA [U43C A52G A63G], which self-cleavage is on record?
The self-cleavage was 2.02.

With GUUAUCGGUCAUAGGCCAUGGGAACUAGGAGCACCAUUUCGCUGCCAGUGAAGAAAUGAACAAAGAAAAUCUGGGCCAGGCAGGCAUCAAAAGAAAUAGUCUUGCGCUCAACCAGAAAGUCUGUAAUCACUUUAAGGGUA [A5U A22G U130C] as the variant, how does the self-cleavage read?
Its self-cleavage is 0.68.

For GUUAACGGUCAUAGGCCAUGGAAACUAGGAGCACCAUUUCGCUGCCAGUGAAGAAAUGAACAAAGAAAAUCUGGGCCAGGCAGGCAUCAAAAGAGAUAGUCUUGCGCUCAACCAGGAAGUCUGUGAUCAUUUUAAGGGUA [A95G A116G A125G], which self-cleavage is on record?
Its self-cleavage is 0.69.

Which self-cleavage does the source give for GUUAACGGUCAUAGGCCAUGGAAACUAGGUGCACCAUUUCGCUGCCAGUGAAGAAAUGAACAAAGAAAAUCUGGGCCAGGCAGGCAUCAAAAGAAAUAGUCUUGCGCCCAACCAGAAAGUCCGUAAUCAUUUUAAGGGUA [A30U U108C U122C] here?
Its self-cleavage is 0.

With AUUAACGGUCAUAGGCCAUGGAUACUAGGAGCUCCAUUUCCCUGCCAGUGAAGAAAUGAACAAAGAAAAUCUGGGCCAGGCGGGCAACGAAAGAAAUAGUCUUGCGCUCAACCAGAAAGUCCGUAAUCAUUUUAAGGGUA [G1A A23U A33U G41C A82G U87A A89G U122C] as the variant, how does the self-cleavage read?
The self-cleavage was 0.4.

Which self-cleavage does the source give for GUUAACGGUCAAGGGCCAUGGAAACUAGGAGCACCAUUUCGCUGCCAGUGAAGGAAUGAACAAAGAAAAUCUGGGCCAGGCAGGCAUCAAAAGAAAUAGUCUUGCGCUCAACUAGAAAGUCUGUAAUUAUUUUAAGGGUA [U12A A13G A54G C113U C128U] here?
Its self-cleavage is 0.09.

For GUUAACGGUCAUAGGCCAUGGAAACUAGGAGCACCAUUUCGCUGCCAGUGAAGAAAUGAACAGAGAAAAUCUGGGCCGGGCAGGCAUCAAAAGAGAUAGUCUUGUGCUCAACCAGAAAGCCUGUAAUCGCUUUAAGGGUA [A63G A78G A95G C105U U120C A129G U130C], which self-cleavage is on record?
The self-cleavage was 0.01.

For GUUAACGGUCAUAGGCCAUGGAAACUAGGAGCACCGUUUCGCUGCCAGUGAAGAAACGAACAAAGAAAAUCUGGGCCAGGCAGGCAUCAAAAGAAAUAGUCUUGCGCUCGACCAGAAAGUCUGUAACCAUUUUAAGGGUA [A36G U57C A110G U127C], which self-cleavage is on record?
The self-cleavage was 0.03.

For GUUAACGGUCAUUGGUCAUGGAAACUAGGAGCACCAUUUCGCUGCCAGUGAAGAAAUGAACAAAGAAAAUCUGGGCCAGGCAGGCAUCUAAAGAAAUAGUCUUGCGCUCAACCAGAAAGUCUGUAAUCAUUUUAAGGGUA [A13U C16U A89U], which self-cleavage is on record?
Its self-cleavage is 0.65.

Which self-cleavage does the source give for GUUAACGGUCGUAGGCCAUGGAAACUAGGAGCACCAUUUCGCUGCCAGUGAAGAAAUGAACAAAGAAAAUCUGGGCCAGGCAGGCAACAAAAGAAAUAGUCUUGCGCUCAACCAGAAAGUCUGUGGUCAUUUUAAGGGUA [A11G U87A A125G A126G] here?
The self-cleavage was 0.31.
